Source: the supplement of paper PMC11348887
Where a name gives a salt, the structure may show the parent alone. The list shows a part of the results. No stated cut-off is given here; in the data, active = -2 or less and inactive = the rest. Single values are uncertain, as repeats are few or missing.

These compounds were tested on hPSC-derived cortical neurons (WA09) (assay: nuclei number (viability) z-score; higher = more surviving cells). Conditions: 5 µM; treatment: days 7-14 after plating, readout day 21.
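Further: nuclei counted from DAPI counterstain by automated high-content image analysis, four fields per well at ×20 in 384-well plates, with sequential b-score then z-score normalization.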

SMILES | nuclei number (z-score)
CNC(=O)c1cc(Oc2ccc(NC(=O)Nc3ccc(Cl)c(C(F)(F)F)c3)c(F)c2)ccn1 [Regorafenib (BAY 73-4506)] | inactive: 1.13
CC(C)(C)NCC(O)COc1cccc2c1CCC(=O)N2 (stereo not given) [Carteolol HCl] | inactive: -0.275
O=C(Nc1ccccc1-c1cn2c(CN3CCNCC3)csc2n1)c1cnc2ccccc2n1 | active: -2.53
O=C(O)c1cc(/N=N/c2ccc(O)c(C(=O)O)c2)ccc1O [Olsalazine Sodium] | inactive: -0.756
O=C(C1CCCCC1)N1CC(=O)N2CCc3ccccc3C2C1 (stereo not given) [Praziquantel] | inactive: -0.933
C[C@@H]1CCO[C@H]2Cn3cc(C(=O)NCc4ccc(F)cc4F)c(=O)c(O)c3C(=O)N12 | inactive: 0.191
C[C@]1(O)C[C@@H](c2nc(-c3ccc4ccc(-c5ccccc5)nc4c3)c3c(N)nccn32)C1 [OSI-906 (Linsitinib)] | inactive: -0.995
COc1ccc2c(c1)c(CC(=O)O)c(C)n2C(=O)c1ccc(Cl)cc1 [Indomethacin] | inactive: -0.695
CN1CCC(=C2c3ccccc3CCc3cccnc32)CC1 [Azatadine dimaleate] | inactive: 0.322
Nc1nc2ccc(OC(F)(F)F)cc2s1 [Riluzole] | inactive: 0.11
CC(C)C[C@H](NC(=O)[C@@H](NC(=O)c1cccc(-c2ccccc2)n1)[C@@H](C)O)B(O)O | active: -2.82
CNC(=O)c1cc(Oc2ccc(NC(=O)Nc3cc(C(C)(C)C)nn3-c3ccc4ncccc4c3)c(F)c2)ccn1 [DCC-2036 (Rebastinib)] | inactive: -1.43
OC[C@H]1O[C@H](O[C@]2(CCl)O[C@H](CCl)[C@@H](O)[C@@H]2O)[C@H](O)[C@@H](O)[C@H]1Cl [Sucralose] | inactive: -0.366
CCC/N=C1\S/C(=C\c2ccc(OC[C@H](O)CO)c(Cl)c2)C(=O)N1c1ccccc1C [Ponesimod] | inactive: -0.297
Nc1ccn([C@H]2CC[C@@H](CO)O2)c(=O)n1 [Zalcitabine] | inactive: -0.107
CCc1cc(Nc2nccc(-c3c(-c4ccc(OC)c(C(=O)Nc5c(F)cccc5F)c4)nc4ccccn34)n2)c(OC)cc1N1CCC(N2CCN(S(C)(=O)=O)CC2)CC1 | active: -3.25
O=C(Nc1ccccc1C(=O)NC1CCCCNC1=O)c1cc2ccccc2s1 (stereo not given) | inactive: 0.581
CC(C)(C#N)c1cc(Cn2cncn2)cc(C(C)(C)C#N)c1 [Anastrozole] | inactive: 0.75
COc1cc2nccc(Oc3ccc(NC(=O)Nc4cc(C)on4)c(Cl)c3)c2cc1OC [Tivozanib (AV-951)] | inactive: -0.17
C[C@@H](O)[C@H]1C(=O)N2C(C(=O)O)=C(S[C@@H]3CN[C@H](CNS(N)(=O)=O)C3)[C@H](C)[C@H]12 [Doripenem Hydrate] | inactive: 0.238
COc1cccc(-n2c(=O)[nH]c3cc(Cl)n(-c4ccc(-c5cccc(OC)c5O)cc4)c3c2=O)c1 | inactive: 3.05
Oc1c(I)cc(Cl)c2cccnc12 [Clioquinol] | inactive: 0.151
C=CCNC(N)=S [Allylthiourea] | inactive: -0.183

SMILES | nuclei number (z-score)
CNC(=O)c1cccc(-c2ccc3c(N4CCOC[C@@H]4C)nc(N4CCOC[C@@H]4C)nc3n2)c1 | inactive: -1.79
CN(C)CCOC(C)(c1ccccc1)c1ccccn1 (stereo not given) [Doxylamine Succinate] | inactive: 0.405
COc1cccc(-c2cc(=O)c3ccccc3o2)c1N | inactive: 2.07
O=C(CCc1ccc(O)cc1)c1c(O)cc(O)cc1O [Phloretin] | inactive: 0.0777
N#Cc1cccc(-c2c[nH]c3ncnc(N4CCOCC4)c23)c1 | inactive: -0.201
CC[C@H](C)[C@H](N)C1=N[C@H](C(=O)N[C@@H](CC(C)C)C(=O)N[C@H](CCC(=O)O)C(=O)N[C@H](C(=O)N[C@H]2CCCCNC(=O)[C@H](CC(N)=O)NC(=O)[C@@H](CC(=O)O)NC(=O)[C@H](Cc3cnc[nH]3)NC(=O)[C@@H](Cc3ccccc3)NC(=O)[C@H]([C@@H](C)CC)NC(=O)[C@@H](CCCN)NC2=O)[C@@H](C)CC)CS1 [Bacitracin] | inactive: 0.205
CC(=O)NS(=O)(=O)c1ccc(NC(=O)c2ccccc2C(=O)O)cc1 [Phthalylsulfacetamide] | inactive: 0.627
NC(=O)c1cccc2cn(-c3ccc([C@@H]4CCCNC4)cc3)nc12 [Niraparib (MK-4827) tosylate] | inactive: -0.0291
CN(CC(=O)N(Cc1ccc(C2CCCCC2)cc1)c1ccc(C(=O)O)cc1)S(=O)(=O)c1c(F)c(F)c(F)c(F)c1F | inactive: 1.01
OC(CNCC(O)C1CCc2cc(F)ccc2O1)C1CCc2cc(F)ccc2O1 (stereo not given) [Nebivolol] | inactive: -0.761
O=C(NCc1ccccc1)c1csc(Nc2ccncn2)n1 [Thiazovivin] | inactive: 0.315
CNC[C@H](O)c1ccc(O)c(O)c1 [Epinephrine Bitartrate] | inactive: 4.26
CNC[C@H](O)c1ccc(O)c(O)c1 [Epinephrine HCl] | inactive: 0.193
CC(S)C(=O)NCC(=O)O (stereo not given) [Tiopronin] | inactive: 0.102
CNCc1ccc(-c2cc(-c3nc(-c4ccc(S(=O)(=O)C(C)C)cc4)cnc3N)on2)cc1 | active: -3.77
CN1CCN(CCCN2c3ccccc3Sc3ccc(C(F)(F)F)cc32)CC1 [Trifluoperazine 2HCl] | inactive: -1.86
CCOC(=O)C1=C(COCCN)NC(C)=C(C(=O)OC)C1c1ccccc1Cl (stereo not given) [Amlodipine] | inactive: -1.4
CCOC(=O)C1=C(COCCN)NC(C)=C(C(=O)OC)C1c1ccccc1Cl (stereo not given) [Amlodipine Besylate] | inactive: -0.459
Cc1ncc(CCCN(C)C)cc1Nc1ncc2c(n1)-c1ccc(C(F)(F)F)cc1NC(=S)C2 | inactive: -1.02
Oc1ccc(/C=C/c2cc(O)cc(O)c2)cc1 [Resveratrol] | inactive: 0.00317
CCN(CC)CCNC(=O)c1c(C)[nH]c(/C=C2\C(=O)Nc3ccc(F)cc32)c1C [Sunitinib Malate] | active: -2.75
CCN(CC)CCNC(=O)c1c(C)[nH]c(/C=C2\C(=O)Nc3ccc(F)cc32)c1C [Sunitinib] | active: -3.01
